The source of these data is article PMC6919601, “Identification of Plasmodium dipeptidyl aminopeptidase allosteric inhibitors by high throughput screening” (PLoS ONE, 2019).

Out of some 110,000 compounds screened, about 230 (0.21%) showed an effect of 50% or more. Some of the results follow.
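Also: 30 min substrate incubation versus DMSO and 10 µM JCP410 controls.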

Sequence of DPAP1 (Q8IIJ9 whole entry, looked up): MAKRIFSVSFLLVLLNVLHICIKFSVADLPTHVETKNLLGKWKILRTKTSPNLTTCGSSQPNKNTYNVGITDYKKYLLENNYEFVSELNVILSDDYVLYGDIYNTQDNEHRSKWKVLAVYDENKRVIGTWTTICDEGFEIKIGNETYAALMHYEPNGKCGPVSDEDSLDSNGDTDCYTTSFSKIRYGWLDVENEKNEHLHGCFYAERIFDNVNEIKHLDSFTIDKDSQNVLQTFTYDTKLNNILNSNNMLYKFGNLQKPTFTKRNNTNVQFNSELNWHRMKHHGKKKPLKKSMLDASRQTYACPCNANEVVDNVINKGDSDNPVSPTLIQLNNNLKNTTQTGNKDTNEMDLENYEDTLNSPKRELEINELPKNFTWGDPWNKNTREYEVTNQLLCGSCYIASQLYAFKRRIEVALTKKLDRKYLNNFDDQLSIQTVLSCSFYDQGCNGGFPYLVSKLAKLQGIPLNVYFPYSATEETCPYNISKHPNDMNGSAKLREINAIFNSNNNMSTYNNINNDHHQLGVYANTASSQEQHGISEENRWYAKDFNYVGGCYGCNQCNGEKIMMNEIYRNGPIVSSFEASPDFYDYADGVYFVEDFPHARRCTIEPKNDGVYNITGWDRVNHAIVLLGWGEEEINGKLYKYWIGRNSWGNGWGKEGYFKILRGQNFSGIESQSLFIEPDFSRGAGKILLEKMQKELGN

The assay addresses DPAP1 (Plasmodium falciparum, UniProt Q8IIJ9). Nature of the assay: primary screen, percent inhibition; read by cleavage of a fluorogenic dipeptide substrate; higher = more effect of the substance. Details: species or system P. falciparum D10 trophozoite lysates; single well.
Consider `CCOCCCN(Cc1ccco1)C(=O)c1noc2c1COc1ccc(C)cc1-2`, for which the “% Inhibition @ 10 uM” value is on record as -4.68%.

Turning to `COc1ccc(NS(=O)(=O)c2ccc(NC(=O)c3ccc(OC)c(Br)c3)cc2)cc1`, the “% Inhibition @ 10 uM” value is -0.173%. For the compound `Clc1ccc(C2CC(c3cccs3)n3ncnc3N2)cc1Cl` (centres unmarked), the “% Inhibition @ 10 uM” value is reported as -12.2%. `c1ccc2c(c1)c(N1CCCC1)nn1cnnc21`: the “% Inhibition @ 10 uM” value amounted to 4.86%. To `COc1cccc(/C=C2\SC(c3ccccc3)=NC2=O)c1O` belongs 34%; to `Cc1ccc(C2C3=C(Nc4ncnn42)c2ccccc2CCC3)cc1` (centres unmarked), -3.4%; to `Cc1cc(-c2ccc(F)cc2)nc2cc(C(=O)Nc3cc(Cl)ccc3O)nn12`, -10.7%. Next, `CCOc1c(CNCCNC(=O)c2nonc2N)cccc1OC`: -3.49%.

As for `Cc1cccc(C)c1OCC(O)CN1CCN(Cc2ccc3c(c2)OCO3)CC1` (centres unmarked), the “% Inhibition @ 10 uM” value is on record as -2.86%. Consider `COc1cc(/C=C2\SC(N)=NC2=O)cc(Cl)c1OS(=O)(=O)c1ccccc1`, for which the “% Inhibition @ 10 uM” value was -4.7%. To `CCCCN(C)C(=O)Cn1ncc2c(C)n(Cc3ccccc3Cl)c(C)c2c1=O` belongs -0.447%; to `CCOCCCNC(=O)C1c2ccccc2Oc2ccccc21`, 1.91%; to `CC1=C(C(=O)NCCCN2CCc3ccccc3C2)C2(CCCCC2)OC1=O`, -5.58%. Turning to `O=C(O)C1CC=CCC1C(=O)Nc1ccc2c(c1)OCO2` (centres unmarked), the “% Inhibition @ 10 uM” value came out at 7.12%. Next, `Cc1cc(/C=C2/NC(=O)N(c3cccc(Cl)c3)C2=O)c(C)n1-c1ccc(S(N)(=O)=O)cc1`: -0.67%; `CN(CCCNC(=O)c1csc2c1CCCC2)Cc1ccccc1`: -3.21%.

`C=C(C)Cn1c(CN(C)Cc2ccccc2)nc2c1c(=O)n(C)c(=O)n2C`: the “% Inhibition @ 10 uM” value was -4.78%.

Consider `COc1ccc(C(NC(=O)CCc2ccccc2)c2ccc3cccnc3c2O)cc1` (centres unmarked), for which the “% Inhibition @ 10 uM” value is recorded as 0.279%. Next, `CC1=C(C(=O)Nc2ccccc2C)C(c2cccc(Br)c2)C2=C(O)CCCC2=N1` (centres unmarked): 5.49%. To `O=C1CC(NCC23CC4CC(CC(C4)C2)C3)C(=O)N1c1ccc(Br)cc1` (centres unmarked) belongs 6.23%; to `Cc1oc2ccc(O)c(CN3CCCCC3C)c2c1C(=O)NC1CCCC1` (centres unmarked), -2.99%. With `O=C(NCCOCCOCCNC(=O)c1cccnc1)c1cccnc1`, the “% Inhibition @ 10 uM” value is -1.33%. To `Cc1cc(NC(=O)Cn2nc(C(F)(F)F)cc2C2CC2)no1` belongs -3.45%; to `COc1ccc(CNC(=O)c2cc(C3CC3)on2)cc1`, -1.21%; to `Nc1c(C(=O)NCc2ccc3c(c2)OCO3)nnn1Cc1cccc(F)c1`, 1.26%.

As for `O=C(Cn1cc(C(=O)c2cccs2)c2ccccc21)NC1CCCC1`, the “% Inhibition @ 10 uM” value is listed as 4.84%. To `Cc1nc2ccccc2c2oc(C(=O)N3CC(C)CC(C)C3)cc12` (centres unmarked) belongs 4.74%.

Consider `Cc1ccc(C)c(NC(=O)C2CC(=O)N(c3ccc(C(C)C)cc3)C2)c1` (centres unmarked), for which the “% Inhibition @ 10 uM” value is -1.95%. For the compound `O=C(O)CNC(=O)/C(=C\c1cccs1)NC(=O)c1ccccc1`, the “% Inhibition @ 10 uM” value amounted to 4.65%.

Turning to `CCOC(=O)c1sc(NC(=O)C2CC2c2ccccc2)c(C(=O)OCC)c1C` (centres unmarked), the “% Inhibition @ 10 uM” value is -1.1%. Take `COc1ccc(C(CC(=O)NCCc2ccccc2)N2Cc3ccccc3C2=O)cc1` (centres unmarked): the “% Inhibition @ 10 uM” value was -5.16%. As for `c1ccc(-c2ncnc3nc4n(c23)CCC4)cc1`, the “% Inhibition @ 10 uM” value was 4.5%. With `O=[N+]([O-])c1c(NCc2ccccc2)cc(Cl)c2nonc12`, the “% Inhibition @ 10 uM” value worked out at 16.3%. Next, `COc1ccc(NC(=O)c2ccc(Cn3nc(C)cc3C)o2)c(OC)c1`: -9.4%. Turning to `CNC(=O)CCn1nc(-c2ccc(C)cc2)c2ccccc2c1=O`, the “% Inhibition @ 10 uM” value is on record as -8.79%. As to `CC[C@H](C)[C@H](NC(=O)CCc1ccccc1)C(=O)N[C@@H](CCc1ccccc1)C(=O)CO`, the “% Inhibition @ 10 uM” value came out at 3.66%. With `CCOC(=O)N1CCN(C(C)=C2C(=O)c3ccccc3C2=O)CC1`, the “% Inhibition @ 10 uM” value came out at 2.44%. Next, `CCn1cc(C2=NOC(C(=O)Nc3cccnc3)C2)c(C)n1` (centres unmarked): 3.45%. On to `CN(C)CCN(Cc1ccccc1)Cc1ccc(Cl)cc1`, for which the “% Inhibition @ 10 uM” value is recorded as -6%. Next, `CC1(C)CC(=O)C2=C(C1)OC(N)=C(C#N)C2c1coc2ccccc2c1=O` (centres unmarked): -3.77%; `Cc1nc2cc(NC(=O)N(C)c3ccc4ccccc4c3)ccc2o1`: -2.54%.

Take `CCC1(CC)C(=O)NC(=S)N=C1N`: the “% Inhibition @ 10 uM” value was -0.0372%. To `CSc1nc(C)cc(Oc2ccc(OCCOc3ccccc3)nn2)n1` belongs -3.96%. Next, `O=c1/c(=C/c2c(O)ccc3ccccc23)sc2n1CCCN=2`: 35.2%; `COCCNC(=O)c1cc(S(=O)(=O)N2CCOCC2)cn1C`: 0.229%; `CC(=O)c1[nH]c(C)c(C(=O)NCCCc2ccccc2)c1C`: -4.05%. To `CC(C)CNc1cnnc2c(Cl)cccc12` belongs -9.84%; to `C=CCCC1(C)N2CC3(C)CN1CC(C)(C2)C3=O` (centres unmarked), -4%; to `COC(=O)C1=C(C)NC(=O)NC1c1cccc(Br)c1` (centres unmarked), 2.45%. Regarding `CCC(C)c1ccccc1OCC(O)CN1C(=O)NC(C)(C)C1=O` (centres unmarked), the “% Inhibition @ 10 uM” value turned out to be 0.275%. Next, `O=C1C2C3CCC(C3)C2C(=O)N1c1ccc(Cl)cc1Cl` (centres unmarked): -1.12%. Consider `Cc1nc(N2C(=O)C(O)=C(C(=O)c3ccccc3)C2c2ccc(Cl)cc2)sc1C` (centres unmarked), for which the “% Inhibition @ 10 uM” value is -6.4%.

As to `CCOC(=O)c1cc(C#N)c(SC)nc1O`, the “% Inhibition @ 10 uM” value is given as -1.32%. Turning to `CC(=O)Nc1ccc(S(=O)(=O)NCCCCCC(=O)O)cc1`, the “% Inhibition @ 10 uM” value is 2.59%. Next, `CC(CCc1ccc(O)cc1)N1CCCCCCC1` (centres unmarked): -5.11%; `CCCCNC(=O)c1cc2cc3ccc(C)cc3nc2o1`: -1.54%; `CCCc1ccc(C(C)NC(=O)c2ccc(C)s2)cc1` (centres unmarked): 1.64%. Next, `O=C(NCc1ccccc1Cl)c1ccc(Cn2cc(Cl)cn2)cc1`: 2.08%; `CCCCNc1ncnc2c1cnn2-c1ccc(C)cc1C`: 0.759%. To `CCCCN(C)c1sc(S(C)(=O)=O)nc1S(=O)(=O)c1ccc(C)cc1` belongs -7.8%; to `O=C(Cc1ccccc1)n1nc(-c2cccnc2)nc1NCc1cccs1`, 5.35%. Turning to `COc1ccc(C(=O)CCC(=O)O)c(C)c1`, the “% Inhibition @ 10 uM” value is -1.33%. Consider `O=c1c2nnn(-c3ccc(F)cc3)c2ncn1Cc1ccc(F)cc1`, for which the “% Inhibition @ 10 uM” value was -0.431%. On to `Cc1ccc(-c2ccc(C=C3C(=O)N(C)C(=O)N(C)C3=O)o2)c(Br)c1`, for which the “% Inhibition @ 10 uM” value was 5.23%.

`O=C(c1ccc2c(c1)sc1nc(-c3ccccc3)cn12)N1CCCCC1`: the “% Inhibition @ 10 uM” value is 35.6%. To `COC(=O)c1c(NC(=O)c2ccc(C)cc2)sc(C)c1C` belongs -1.1%.

With `COc1ccc(-c2nsc(SCC(=O)Nc3nnc(C)s3)n2)cc1`, the “% Inhibition @ 10 uM” value is given as -0.659%. To `O=S(=O)(NCCc1nnc2ccc(SCc3cccc4ccccc34)nn12)c1ccccc1` belongs 0.581%; to `O=C(CNCc1cccnc1)Nc1sc2c(c1C(=O)Nc1ccc(Br)cc1)CCCC2`, -6.07%; to `O=C1ON=C(c2ccccc2)/C1=C\c1ccc2c(c1)OCO2`, -2.14%.

On to `CC(Oc1cccc(Cl)c1)C(=O)N(Cc1nc(-c2ccccc2)no1)C(C)C` (centres unmarked), for which the “% Inhibition @ 10 uM” value is recorded as -3.68%. Regarding `O=C1c2ccccc2C(=O)N1CCN1CCOCC1`, the “% Inhibition @ 10 uM” value is on record as -3.06%. Regarding `Cc1nn(C(C)C(=O)NCCCN2CCCC2=O)c(=O)c2nn(-c3ccccc3)c(C)c12` (centres unmarked), the “% Inhibition @ 10 uM” value is -2.31%. For the compound `COc1cccc2c1OC1c3ccccc3OC2C1C` (centres unmarked), the “% Inhibition @ 10 uM” value is -3.94%. Consider `CCN(C(=O)C1CCCCC1C(=O)O)c1ccccc1` (centres unmarked), for which the “% Inhibition @ 10 uM” value was -4.35%.

Take `CCc1nc2cccnc2n1-c1ccc(CC(=O)N2CCOCC2)cc1`: the “% Inhibition @ 10 uM” value is listed as -2.74%. Next, `CC(C)C[C@H](NC(=O)c1ccc(N2CCCCC2)nc1)C(=O)NCC#N`: 2.22%; `CCOC(=O)C1=C(C)N=C2SCCN2C1c1ccc(Br)cc1` (centres unmarked): -1.15%; `CCCCN1CCc2c1nc1ccc(Br)cc1c2N`: 1.7%. Next, `CCNC(=O)C1CCN(c2nnc(N3CCCC3=O)s2)CC1`: -2.85%; `CCOc1ccc(-c2cc(NC(=O)COCc3cc(-c4cccs4)on3)on2)cc1OCC`: -4.96%. To `COc1ccc(NS(=O)(=O)c2cccc(C(=O)Nc3cccc(C(=O)O)c3)c2)cc1` belongs 10.6%; to `CN(C)c1ccc(C2C(C#N)=C(N)OC3=C2C(=O)CC(c2ccccc2)C3)cc1` (centres unmarked), 1.57%. Consider `Cc1ccc(S(=O)(=O)N2CCC(C(=O)Nc3cccc(Cl)c3C)CC2)cc1`, for which the “% Inhibition @ 10 uM” value amounted to 0.583%. To `O=C1c2ccccc2C2(O)NC(=S)NC12O` (centres unmarked) belongs -3.64%; to `CC(C)NCC(O)Cn1c2ccc(Cl)cc2c2cc(Cl)ccc21` (centres unmarked), -1.59%; to `Cc1cc2c(c(=O)n1CCc1ccccc1)C(c1cccnc1)C(C#N)=C(N)O2` (centres unmarked), 0.627%. Next, `CCOc1ccc(/C=C2/SC(Nc3ccccc3)=NC2=O)c(OCC)c1`: -4.82%; `CCCOc1ccc(C(=O)Nc2cc(-c3ccc(C)cc3)no2)cc1`: -1.47%. Next, `COc1ccc(C2C3C(=O)N(c4ccc(OC)cc4)C(=O)C3ON2c2ccccc2)cc1` (centres unmarked): -4.6%; `O=C(O)/C=C/C(=O)N1CCN(c2nc(-c3ccccc3)c3ccccc3n2)CC1`: -2.92%; `O=C(CN1C(=O)c2cccc3cccc(c23)C1=O)N1CCN(c2ccc(F)cc2)CC1`: -3.18%. Take `Cc1cc(C)nc(NS(=O)(=O)c2ccc(NC(=O)c3ccc(S(=O)(=O)N(C)C)cc3)cc2)n1`: the “% Inhibition @ 10 uM” value is reported as -7.7%.

For the compound `COc1ccccc1C(=O)NCCCc1nc2ccccc2n1Cc1ccccc1F`, the “% Inhibition @ 10 uM” value was -2.83%. In the case of `CCOc1cccc(O)c2c(C)nc(C)c1-2`, the “% Inhibition @ 10 uM” value is -2.48%. Next, `CCOc1ccccc1C(=O)N(C)c1ccccc1`: -1.99%; `CCc1c(C#N)c(S)nc(C)c1C(=O)Nc1ccccc1`: 55%.

On to `Cc1ccc(NC(=O)CN2C(=O)S/C(=C\c3ccccn3)C2=O)cc1`, for which the “% Inhibition @ 10 uM” value was -2.27%.

With `CC(C(=O)NCc1ccccn1)n1cccc1C(=O)c1ccccc1` (centres unmarked), the “% Inhibition @ 10 uM” value is recorded as -0.522%. Next, `O=C1NN(C(=O)COc2ccc(Br)cc2)C(c2ccc(Br)cc2)=CS1`: -1.47%. Next, `COc1nc(Nc2ccccc2O)nc(OC)n1`: 2.58%.
